Here are results for 38 variants from the RNAGym collection of RNA variant scans (doi:10.1073/pnas.2313332121).

B1: TPR 5TU (parent)
chain: GGAUCUUCUCGAUCUAACAAAAAAGACAAAUCUGCCACAAAGCUUGAGAGCAUCUUCGGAUGCAGAGGCGGCAGCCUUCGGUGGCGCGAUAGCGCCAACGUUCUCAACUAUGACACGCAAAACGCGUGCUCCGUUGAAUGGAGUUUAUCAUG

Variants at the background level are over-represented here.

In the data set the parent is B1. Kind of data set: polymerase ribozyme fitness, log enrichment relative to wild type (log ratio); higher = more active; in vitro selection for triplet polymerase activity. In short, it runs like this: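 Each subunit of a heterodimeric triplet polymerase ribozyme was mutagenized into a library by PCR, transcribed, and subjected to one round of in vitro selection, run in triplicate. Libraries were annealed with a biotinylated primer, the partner subunit and triplets, incubated frozen at −7 °C, and extended constructs were gel-excised, captured on streptavidin beads and recovered by RT-PCR. Input and output libraries were sequenced on Illumina, keeping genotypes with ≥10 input reads and ≥1 read per output. Fitness is log base 2 of genotype enrichment divided by wild-type enrichment, from inverse-variance-weighted replicate averages.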
Take GGAUCUUCUCGAUCUAACAAAAAAGACAAAUCUGCCACAAAGCUUGAGAGCAUCUUUGGAUGCAGAGGCGGCACCCUUCGGUGGCGCGAUAGCGCCAACGUUCUCCACUAUGACACGCAAAACGCGUGCUCCGUUGAAUGGAGUUUAUCAUG: the “polymerase ribozyme fitness (log ratio)” value was at most -4.2.
For the variant GGAUCUUCUCGAUCUAACAAAAAAGACAAAUCUGCCACAAAGCUUGAGAGCAUCUUCAGGUGCAGAGGUGGCAGCCUUCGGUGGCGCGAUAGCGCCAACCUUCUCAACUAUGACACGCAAAACGCGUGCUCCGUUGAAUGGAGUUUAUCAUG, the “polymerase ribozyme fitness (log ratio)” value is at most -4.2.
With GGAUCUUCUCGAUCUAACAAAAAAGACAAAUCUGCCACAAAGCUUGAGAGCAUCUUUGGAAGCAGAGGCGGCAGCCUUCGGUGGCGCGUUAGCGCCAACGUUCUCGACUAUGACACGCAAAGCGCGUGCUCCGUUGAAUGGAGUUUAUCGUG, the “polymerase ribozyme fitness (log ratio)” value was -3.73.
Turning to GGAUCUUCUCGAUCUAACAAAAAAGACAAAUCUGCCACAAAGCUUGAGAGCAUCUUCAGAUGCAGAGGCGGCAGCCUUCGGUGGGGCGAUAGUGCCAACGUUGUCAACUAUGACACGCAAAACGCGUGUUCCGUUGAAUGUAGUUUAUCAUG, the “polymerase ribozyme fitness (log ratio)” value was at most -4.2.
Consider GGAUCUUCUCGAUCUAACAAAAAAGACAAAUCUGCCACAAAGCUUGAGAGCAUCUUUGGAUGCAUAGGCGGCAGCCUUCGGUGGCGCGAUAGAGCCAACGUUCUCAACUCUGACACGCAAAACGCGUGCUCCGUUGAAUGGAGUUUAUCAUG, for which the “polymerase ribozyme fitness (log ratio)” value is at most -4.2.
On to GGAUCUUCUCGAUCUAACAAAAAAGACAAAUCUGCCACAAAGCUUGAGAGCAUCUUCAGAUGCAGAGGCGGCAGCCUUCGGUGGCGCGAUAGCGCCCACGUUAUCAACUGUCACACGCAAAACGCGUGCUCCGUUGAAUGGAGUUUAUCAUG, for which the “polymerase ribozyme fitness (log ratio)” value is at most -4.2.
Take GGAUCUUCUCGAUCUAACAAAAAAGACAAAUCUGCCACAAAGCUUGAGAGCAUCUUCAGAUGCAGGGGCGGCAGCCUUCGGUGGCGCGAUAGUGCCAAUGUUCUCAACUAUGACACGCAAAACGCGUGCUCCGUUGAAUGGAGUUUAUCAUG: the “polymerase ribozyme fitness (log ratio)” value was at most -4.2.
GGAUCUUCUCGAUCUAACAAAAAAGACAAAUCUGCCACAAAGCUUGAGAGCAUCUUCAGAUGCAGAGGCGGCAGCCUUCGGUGGCGCGAUAGCGCCAACGUUCUCAACUCUGACACGGAAAACGCGUGCUCCGUUGAAUGGAGUUUAUCAUG: the “polymerase ribozyme fitness (log ratio)” value is at most -4.2.
In the case of GGAUCUUCUCGAUCUAACAAAAAAGACAAAUCUGCCACAAAGCUUGAGAGCAUCUUUGGAUGCAGAGGCGGCAGCCUUCGGUGGCACGAUAGCGCCAACGUUCUCAACUAUGACACGCAAAACGCGUGCUCCGUUGAAUGGAGUUUAUCAUG it was -1.16; in that of GGAUCUUCUCGAUCUAACAAAAAAGACAAAUCUGCCACAAAGCUUGAGAGCAUCUUCACAUGCAGAGGCGGCAGCCUUCGGUGUUUCGAUAGCGCCAACGUUCUCAACUAUGACACGCAACACGCGUGCUCCGUUGAAGGGAGUUUAUCAUG, at most -4.2; in that of GGAUCUUCUCGAUCUAACAAAAAAGACAAAUCUGCCACAAAGCUUGAGAGCAUCUUUGGAUGCAGAGGCGGCAGCCUUCGAGGGGGCGAUAGCGCCAACGUUCUCAACUAUGACACGCAAAACGCGUGCUCCGUUGAAUGGAGUUUAUCAUG, at most -4.2.
Turning to GGAUCUUCUCGAUCUAACAAAAAAGACAAAUCUGCCACAAAGCUUGAGAGCAUCUUCAGAUGCAGAGGCGGCAGCCUUCGGUGGCGCGAUAGCGCCAACGUUCUCAACUAUGACACGCAAAACGCGUGCUCCGUUGAAUGGUGUUUAUCAUG, the “polymerase ribozyme fitness (log ratio)” value was -0.199.
As for GGAUCUUCUCGAUCUAACAAAAAAGACAAAUCUGCCACAAAGCUUGAGAGCAUCUUUGCAUGCAGAGCCGGCAGCCUUCGGUGGGGCGAUAGGGCCAACGGUCUCAACUAUGACACGCAAAACGCGUGCUCCGUUGAAUGGAGUUUAUCAUG, the “polymerase ribozyme fitness (log ratio)” value is at most -4.2.
Under GGAUCUUCUCGAUCUAACAAAAAAGACAAAUCUGCCACAAAGCUUGAGAGCAUCUUUGGAUGCAGAGGCGGCAGCCUUCGGUUGCGCGAUAGCGCCAACGUUCUCAACUAUGACACGCAAAACGCGUGCUCCGUUGUAUGCAGUUUAUCAUG stands at most -4.2.
Under GGAUCUUCUCGAUCUAACAAAAAAGACAAAUCUGCCACAAAGCUUGAGAGCAUCUUUGGAUGCAGAGGCAGCAGCCUUCGGUGGCGCGAUCGCGCCAACGUUCUCACCUAUGACACGCAAAACGCGUGCUCCGUGGAAUGGAGUUUAUCAUG stands at most -4.2; under GGAUCUUCUCGAUCUAACAAAAAAGACAAAUCUGCCACAAAGCUUGAGAGCAUCUUCAGAUGCAGAGGCGGCAGCCUUCGGUGGCGAGAUAGCGCCAGCGUUCUCAACUAUGACACGCAACACGCGUGCUCCGUUGAAUGGAGUUUAUCAUG, at most -4.2.
Under GGAUCUUCUCGAUCUAACAAAAAAGACAAAUCUGCCACAAAGCUUGAGAGCAUCUUCAGAUGCAGAGGCGGCAGCCUUCGGUGGGGCGAUAGCGCCAACGUUCUCAACUAUGACACGAAAAACGCCUGCUCCGUUGAAUGGAGUUUAUCAUG stands -3.62; under GGAUCUUCUCGAUCUAACAAAAAAGACAAAUCUGCCACAAAGCUUGAGAGCAUCUUUGGAUGCAGAAGCGGCAGCCUUCGGUGGCGCGAUAGCGCCAACGUUCUCAACUAUGACACGCAAAACGCGUGCUCCGUUGUAUGGAGUUUAGCAUG, at most -4.2; under GGAUCUUCUCGAUCUAACAAAAAAGACAAAUCUGCCACAAAGCUUGAGAGCAUCUUCAGAUGCAGAGGCGGCAGCCUUCGGUGGCGUGAUAGCGCCAACCUUCUCAACUAUGACACGCAAACCGCAUGCUCCGUUGAAUGUAGUUUAUCAUG, at most -4.2.
With GGAUCUUCUCGAUCUAACAAAAAAGACAAAUCUGCCACAAAGCUUGAGAGCAUCUUUGCAUGCAGCGGCGGCAGCCUUCGGUGGCGCGAUGGCGCCAACGUUCUCAACUAUGACACGCAAAACGCGUGCUCCGAUGAAUGGAGUUUAUCAUG, the “polymerase ribozyme fitness (log ratio)” value is at most -4.2.
Under GGAUCUUCUCGAUCUAACAAAAAAGACAAAUCUGCCACAAAGCUUGAGAGCAUCUUUGGAUCCCGGGGCGGCAGCCUUCGGUGGCGCGAUAGCGACAACGUUCUCAACUAUGACACGCAAAACGCGUGCUCCGUUGAAUGGUGUUUAUCAUG stands at most -4.2; under GGAUCUUCUCGAUCUAACAAAAAAGACAAAUCUGCCACAAAGCUUGAGAGCAUCUUCAGAUGCAGAGGCGGCCGCCUUCGGUGGCGCGAUAGCGCCAACGUUCUCAACUAUGACACGCAAAACGCGUGCUCCGUUGAAUGGAGUUUAUCAUG, -1.62; under GGAUCUUCUCGAUCUAACAAAAAAGACAAAUCUGCCACAAAGCUUGAGAGCAUCUUUGGAUGCAGAGGCGGCAGCCUUCGGUGGCGCUAUAGCGCCAACAUUCUCACCUAUGACACGCAAAACGCGUGCUCCGUUGAAUGGAGUUUAUCAUG, at most -4.2.
With GGAUCUUCUCGAUCUAACAAAAAAGACAAAUCUGCCACAAAGCUUGAGAGCAUCUUCAGAUGCAGAGGCGGCAGCCUUCGGUGGCGUGAUAGAGCCAACGUUCUCAACUAUGACACGCAAAACGCGUGCGCCGUUGAAUGGAGUUUAUCAUG, the “polymerase ribozyme fitness (log ratio)” value was at most -4.2.
For the variant GGAUCUUCUCGAUCUAACAAAAAAGACAAAUCUGCCACAAAGCUUGAGAGCAUCUUUGGAUACAGAGGCGGCAGCCUUUGGUGGCGGCAUAGCACUAACAUUCUCAACUAUGACACGCAAAACGCGUGCUCCGUUGAAUGGAGUUUAUCAUG, the “polymerase ribozyme fitness (log ratio)” value is at most -4.2.
As to GGAUCUUCUCGAUCUAACAAAAAAGACAAAUCUGCCACAAAGCUUGAGAGCAUCUUUGGAGGCAGAGGCGGCAGCCUUCGGUGGCACGUUAGCGCCAACGUUCUCAACUAUGACACGCAAAACGCGUGCUCCGUUGAAUGGAGUUUAUCAUG, the “polymerase ribozyme fitness (log ratio)” value is -3.74.
In the case of GGAUCUUCUCGAUCUAACAAAAAAGACAAAUCUGCCACAAAGCUUGAGAGCAUCUUUGGAUGCAGAGGCGGCAGCCAUCGGUGGCGCGAUAGCGCCAACGUUCUCAGCUAUGACACGCAAAACGCGUGCUCCGUUGAAUGGAGUUUAUCAUG it was at most -4.2; in that of GGAUCUUCUCGAUCUAACAAAAAAGACAAAUCUGCCACAAAGCUUGAGAGCAUCUUCAGAUGCAGAGGCGGCUGCCUUCGGUGGCGCGAUAGCGCCAACGGACUCAACAAUGACACGCAAAACGCGUGCUCCGUUGAAUGGAGUUUAUCAUG, at most -4.2.
Under GGAUCUUCUCGAUCUAACAAAAAAGACAAAUCUGCCACAAAGCUUGAGAGCAUCUUUGGAUGCAGAGGCGGCAGCCUUCGGUGCCGCGAUAGCGACAACGUUCUCAACUAUGACAGGCAAAACGCGUGCUCCGUUUACUGGAGUUUAUCAUG stands -4.17; under GGAUCUUCUCGAUCUAACAAAAAAGACAAAUCUGCCACAAAGCUUGAGAGCAUCUUCACAUGCAAAGGCGGCAGCCUUCGGUGGCGCGAUAGCGGAAACGUUCUCAACUAUGACACGCACAACGCGUGCUCCGUUGAAUGGAGUUUAUCAUG, at most -4.2.
GGAUCUUCUCGAUCUAACAAAAAAGACAAAUCUGCCACAAAGCUUGAGAGCAUCUUCAGAUGCAGAGGCGGCAGCCUUCGGUGGCGCGUUAGUUCCAACGUUCUCAACUAUGAUACGCAAAACGCGUGCUCCGUUGAAUGGAGUUUAUCAUG: the “polymerase ribozyme fitness (log ratio)” value is at most -4.2.
As for GGAUCUUCUCGAUCUAACAAAAAAGACAAAUCUGCCACAAAGCUUGAGAGCAUCUUCACAUGCAGAGGCGGCAGCCUUCGGUGGCGCGAUAGCGUCAAUGUUCUCAUCUAUGACACGCAAAACGCGUGCUCUGUUGAAUGGAGUAUAUCAUG, the “polymerase ribozyme fitness (log ratio)” value was at most -4.2.
In the case of GGAUCUUCUCGAUCUAACAAAAAAGACAAAUCUGCCACAAAGCUUGAGAGCAUCUUUGGAUGCAGAGGCGGCAGCCUUCGGUGGCGCGAUAGCGCCAACGUUCUCAACUAUGACACGCAAAACGCGUUCUCCGUUGAAUGGAGUUUAUCAUG it was -3.2; in that of GGAUCUUCUCGAUCUAACAAAAAAGACAAAUCUGCCACAAAGCUUGAGAGCAUCUUUGGAUGCAGAGGCGGCAGCCUUCGGUGGCGCGAUAGCCCCAACGUUCUCAACUAUGACAUGCAAAACGCGUGCUCCGUUGAAUGGAGUUUAUCAUG, 0.445.
Under GGAUCUUCUCGAUCUAACAAAAAAGACAAAUCUGCCACAAAGCUUGAGAGCAUCUUUGGAUGCAGAGGCGGCAGCCUUCGGUUGCGCGAUAGCGCCAACGUUUUCAACUAUGACACGCAAAACGCAUGGUCCGUUGAAUGGAGUUUAUCAUG stands at most -4.2.
In the case of GGAUCUUCUCGAUCUAACAAAAAAGACAAAUCUGCCACAAAGCUUGAGAGCAUCUUUGGAUGCAGAGGCGGCAGCCUUCGGUGGCGCGAUAGCGCCAACGUUCUCAACUAUGACACGCAAAACGCGUGCUCCGUUGAAUCGAGUUUAUCAUG it was -3.55; in that of GGAUCUUCUCGAUCUAACAAAAAAGACAAAUCUGCCACAAAGCUUGAGAGCAUCUUCAGAUGCAGGGGCGGCAGCCUUCGAUGGCGCGAUAGCGCCAACGUUCUCAACUAUGACCCGCAAAACGCGUGCUCCGUUGAAUGGAGUUUAUGAUG, at most -4.2.
GGAUCUUCUCGAUCUAACAAAAAAGACAAAUCUGCCACAAAGCUUGAGAGCAUCUUUGGAUGCAGAGGCGGCAGCCUUCGGUGACGCGAUAGCGCCAUCGUUCUCAACUAUGACACGCAAAACGCGUGUUCCGUUGAAUGGAGUUUUUCAUG: the “polymerase ribozyme fitness (log ratio)” value was -1.13.
